In all, about 200,000 compounds went through this assay and about 4,500 (2.2%) were called active. Inconclusive means that the source gave no clear call. Such entries were picked first, then a sample of the others. Calls come from the whole dose curve; as a rule, active = well fitted inhibition curve with a large enough effect; inconclusive = small, poorly fitted or top-dose-only effect, or effect the other way; inactive = flat fitted curve, though single readings scatter. Potencies of inconclusive entries are doubtful fits and often do not repeat.
The compounds below were run against Cruzipain (Trypanosoma cruzi) (UniProt P25779) (assay: qHTS Assay for Promiscuous and Specific Inhibitors of Cruzain (without detergent)). Details: purified cruzain, Z-FR-AMC fluorescence, no detergent.
UniProt P25779, sequence (P25779 whole entry, looked up): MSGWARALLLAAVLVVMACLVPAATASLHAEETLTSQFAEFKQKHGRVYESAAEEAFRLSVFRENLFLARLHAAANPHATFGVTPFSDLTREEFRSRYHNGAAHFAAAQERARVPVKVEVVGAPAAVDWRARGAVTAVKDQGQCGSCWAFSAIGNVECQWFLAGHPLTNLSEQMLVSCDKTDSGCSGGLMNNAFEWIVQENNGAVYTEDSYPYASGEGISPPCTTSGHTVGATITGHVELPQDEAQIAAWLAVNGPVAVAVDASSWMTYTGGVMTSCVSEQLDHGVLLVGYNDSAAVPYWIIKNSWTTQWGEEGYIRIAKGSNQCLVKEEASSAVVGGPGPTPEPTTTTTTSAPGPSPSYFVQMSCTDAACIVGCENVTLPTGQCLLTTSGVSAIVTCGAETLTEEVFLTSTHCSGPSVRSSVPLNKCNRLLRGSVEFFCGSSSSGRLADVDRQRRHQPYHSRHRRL
In short: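 Purified cruzain at 1.5 nM, pre-incubated 15 min with compound at room temperature in 100 mM sodium acetate pH 5.5, 5 mM DTT, 0.00005% Triton X-100. Reaction started with 2 uM Z-FR-AMC; AMC fluorescence increase over 60 s gives rate.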
Note: nearly all actives have a fitted effect of over 40% in size.
Potency is the fitted concentration of half-maximal effect; tags give direction and shape of the fitted curve.
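Throughout, for max response, negative = inhibition: plate controls were enzyme without inhibitor for no effect and buffer without enzyme for full effect.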

| Compound | max response, negative = inhibition | Potency |
| --- | --- | --- |
| Cn1c(=O)c2c(-c3ccccc3)n3c(c2n(C)c1=O)C(c1ccc([N+](=O)[O-])cc1)Nc1ccccc1-3 (stereo not drawn) | inactive: -5.23% | – |
| O=C(COC(=O)c1ccc(CNS(=O)(=O)c2ccc(F)c(Cl)c2)cc1)NCC1CCCCC1 | inactive: 4.51% | – |
| Cc1csc2nc(COc3ccc(NC(=O)c4ccccc4F)cc3)cc(=O)n12 | – | inconclusive: 6.31 µM [activator, single point] |
| O=S(=O)(c1ccc2ccccc2c1)N1CCC(c2nc(-c3ccncc3)no2)CC1 | – | inconclusive: 0.126 µM [inhibitor, single point] |
| CCN(CC)CCCCn1c(-c2ccccc2)nc2c(NCc3ccccc3)nc(C)nc21 | inactive: -4.49% | – |
| CCCOc1ccc(N2C(=O)CC(N(CCc3ccc(OC)cc3)C(=O)c3cccc(F)c3)C2=O)cc1 (stereo not drawn) | inactive: 2.17% | – |
| CC(/C=C/c1ccccc1)=N/NC(=O)CCC(=O)Nc1ccccc1C | – | inconclusive: 39.8 µM [inhibitor, single point] |
| CCOc1ccc(CCNC(=O)NCc2noc3ccc(C)cc23)cc1 | inactive: -4.34% | – |
| O=C(N/N=C/c1ccc2c(c1)OCO2)c1cc(-c2ccccc2)nc2ccccc12 | – | inconclusive: 25.1 µM [inhibitor, single point] |
| COc1ccc(-c2[nH]c(-c3ccc(C)cc3)nc2SCC(=O)Nc2nccs2)cc1 | – | inconclusive: 39.8 µM [inhibitor, single point] |
| CCOCCc1nn2c(=O)cc(COC(=O)c3ccc(NC(=O)c4cccs4)cc3)nc2s1 | inactive: 7.18% | – |
| COc1cc(NC(=O)COC(=O)CNC(=O)c2ccc(Cl)cc2)c(C)cc1[N+](=O)[O-] | – | active: 10 µM |
| O=C(Nc1nc(-c2cccs2)c(-c2cccs2)s1)C1(c2ccccc2)CC1 | – | active: 10 µM |
| O=C(Nc1cccc(Br)c1)c1cc(S(=O)(=O)N2CCCCC2)c[nH]1 | – | inconclusive: 39.8 µM [inhibitor, single point] |
| CC/C(=C(\c1ccccc1)c1ccc(OCCN(C)C)cc1)c1ccccc1 | – | inconclusive: 25.1 µM [activator, partial curve, poor fit] |
| CCc1ccc(-n2c(N3CCN(c4ccc(F)cc4)CC3)nc3ccccc3c2=O)cc1 | inactive: -9.2% | – |
| CSc1ccc(-c2c(C#N)c(N)nc3c2CCCC3)cc1 | – | inconclusive: 6.31 µM [inhibitor, full curve] |
| COc1ccc(NC(=O)C(NC(=O)/C=C\c2ccc3c(c2)OCO3)c2ccc(C)cc2)cc1 (stereo not drawn) | – | inconclusive: 39.8 µM [inhibitor, single point] |
| c1ccc(-c2n[nH]c3c2oc2ccccc23)cc1 | inactive: -15% | – |
| COCCCNC(=O)c1ccc(Cn2c(=O)c3ccccc3n(Cc3cc(C)ccc3C)c2=O)cc1 | – | inconclusive: 39.8 µM [activator, single point] |
| O=C(NCc1ccc2c(c1)OCO2)C12CN(Cc3ccccc3)CC1C(c1cccc([N+](=O)[O-])c1)=NO2 (stereo not drawn) | inactive: -14.3% | – |
| COc1ccc(C(=O)N2CCN(C(=O)COc3ccccc3)CC2)cc1OC | inactive: 0.461% | – |

| Compound | max response, negative = inhibition | Potency |
| --- | --- | --- |
| COc1ccc(CC(=O)N2CCc3c([nH]c4ccccc34)C2c2ccc(SC)cc2)cc1 (stereo not drawn) | – | active: 25.1 µM |
| CC(=O)N1CCCc2cc(S(=O)(=O)Nc3ccc(Cl)cc3F)ccc21 | – | inconclusive: 39.8 µM [activator, single point] |
| O=C(Nc1ccc2oc(-c3cccnc3)nc2c1)c1ccccc1F | inactive: 1.88% | – |
| Cc1cc(Cl)cc(Br)c1OCCCCn1cncn1 | – | inconclusive: 3.16 µM [inhibitor, single point] |
| N#C/C(=C/c1ccc(Br)s1)C(=O)NCCc1c[nH]c2ccccc12 | – | inconclusive: 39.8 µM [inhibitor, single point] |
| COc1ccc(-c2nc(SCC(=O)NC3CCCC3)c(-c3ccc(F)cc3)[nH]2)cc1OC | – | inconclusive: 39.8 µM [activator, single point] |
| CCOC(=O)Cc1csc(NC(=S)NC(=O)c2cccc([N+](=O)[O-])c2)n1 | – | inconclusive: 31.6 µM [inhibitor, single point] |
| Cc1ccc(NC(=O)c2cc(S(=O)(=O)N3CCC4(CC3)OCCO4)ccc2F)cc1 | – | inconclusive: 31.6 µM [activator, single point] |
| CCOC(=O)c1c(-c2cccc(C)c2)csc1NC(=O)c1c(-c2ccccc2)noc1C | – | active: 7.94 µM |
| CCc1ccc(/C=C2/SC(=S)N(CC(=O)Nc3nc4ccccc4s3)C2=O)cc1 | – | active: 3.16 µM |
| COc1ccc(C)cc1NC(=O)Cn1nc(N2CCN(c3ccccc3OC)CC2)ccc1=O | – | inconclusive: 39.8 µM [activator, single point] |
| COc1cc(CN(CCc2c(C)[nH]c3ccc(C)cc23)C(=S)NC(C)(C)C)cc(OC)c1OC | – | inconclusive: 39.8 µM [activator, single point] |
| COc1ccc(-n2nc(C(=O)NCc3ccco3)c3c4ccccc4n(C)c3c2=O)cc1Cl | – | inconclusive: 31.6 µM [inhibitor, single point] |
| COc1ccc(Nc2c3c(nc4c(-c5ccccc5)c(C)nn24)CCC3)cc1 | – | inconclusive: 39.8 µM [inhibitor, single point] |
| Cc1ccc(-n2nnnc2SCn2nnc3ccccc3c2=O)c(C)c1 | inactive: -5.47% | – |
| O=C(CSc1nc2c(sc3ccccc32)c(=O)n1CCc1ccccc1)NCc1ccco1 | – | active: 5.01 µM |
| O=C(CN1C(=O)CCc2cc(Br)ccc21)Nc1ccc(OC(F)(F)F)cc1 | inactive: 1.46% | – |
| COCCn1c(=O)cnc2cnc(N3CCN(C)CC3)nc21 | – | inconclusive: 20 µM [inhibitor, partial curve, poor fit] |
| COc1ccccc1N1CCN(S(=O)(=O)c2cc(C(=O)Nc3ccc(Oc4ccccc4)cc3)ccc2F)CC1 | – | active: 7.94 µM |
| CSc1ccc(/C=N/NC(=O)CNc2ccc3ccccc3c2)cc1 | – | inconclusive: 25.1 µM [inhibitor, single point] |
| COc1ccc(-c2cnc(SCC(=O)Nc3nc(C(C)(C)C)cs3)n2Cc2ccco2)cc1 | – | inconclusive: 31.6 µM [inhibitor, single point] |

Reference: PubChem BioAssay AID1476 (National Center for Advancing Translational Sciences (NCATS), 2009)
